Hit rate of the full screen: of about 52,000 compounds, about 4,300 (8.3%) were called active. No stated cut-off is given here; in the data, active means survival mostly below about 52% (no sharp cut-off); inactive means mostly above about 56%. The list shows a part of the results.

This experiment has as its system DeltatarO mutant. Put plainly: growth inhibition of S. aureus wild type versus tarO mutant, primary screen, teichoic acid synthesis inhibitors, RN4220, OD600 (AID 463173). The settings on record: OD600, 18 h, hits give low values, screened at 18.75 µg/mL (by protocol).
With `COc1cccc(CNCC(=O)N2C(C)CCCC2C)c1` (configuration not stated), the survival is inactive: 82%.

Turning to `CCOC(=O)c1c(S(=O)(=O)N2CCCC(C(=O)N3CCN(c4cccc(C)c4C)CC3)C2)c(C)n(C)c1C` (configuration not stated), the survival was inactive: 75%.

Regarding `O=C(CSc1nnnn1Cc1ccccc1)NCCc1ccccc1`, the survival was inactive: 89%.

Take `CC(=O)Nc1ccc(C(=O)CSc2nc3ccccc3n2CC(=O)N2CCCC2)cc1`: the survival was inactive: 92%.

Regarding `COC(=O)c1c(SC)nc2ccccc2c1OCc1ccccc1C`, the survival is inactive: 105%.

For `COc1ccc(-c2ccc3c(N)c(C(=O)NCc4ccc(Cl)cc4)sc3n2)cc1`, the survival was inactive: 79%.

Consider `Cc1ccc(S(=O)(=O)N2CCNCC2)cc1`, for which the survival is inactive: 87%.

Take `O=C(CCn1c(=O)c2ccccc2n(Cc2ccc(F)cc2Cl)c1=O)NCc1ccc2c(c1)OCO2`: the survival is inactive: 89%.

As for `CCc1ccc(NC(=O)C2CCN(S(=O)(=O)c3ccc4[nH]c5c(c4c3)CCCCC5)CC2)cc1`, the survival was inactive: 67%.

Regarding `CCn1cc(C(=O)N2CCN(c3ccccc3F)CC2)c(=O)c2cc(S(=O)(=O)N(C)C3CCCCC3)ccc21`, the survival was inactive: 79%.

As for `CCOC(=O)c1c(C)oc2nc(C)nc(NCc3ccc(Cl)cc3)c12`, the survival is inactive: 91%.

For the compound `COc1ccc(-c2cc3ccc(O)c(CN4CCOCC4)c3oc2=O)cc1`, the survival was inactive: 97%.

Consider `CC(=O)N1CCc2cc(Br)cc(S(=O)(=O)N3CCC(C(=O)N(C)c4cc(C)ccc4C)CC3)c21`, for which the survival is inactive: 94%.

`Cc1cccc(NC(=O)CSc2nc(-c3ccco3)nc3cc(=O)[nH]n23)c1`: the survival was inactive: 80%.

Turning to `COc1cc(NC(=O)c2ccccc2)ccc1NC(=O)c1cc2ccccc2o1`, the survival was inactive: 55%.

Take `Cc1ccc(NC(=O)Cn2nnc(-c3nc(-c4ccncc4)no3)c2N)cc1`: the survival was inactive: 120%.

Regarding `Cc1ccc(C(=O)O)cc1Nc1nc2ccccc2n2nnnc12`, the survival was inactive: 82%.

On to `CCCOc1ccc(CNC(=O)C(CC)n2nc(C)c3sc4ccccc4c3c2=O)cc1` (configuration not stated), for which the survival was inactive: 69%.

For the compound `CCOc1ccc2nc(C)cc(Nc3ccccc3OCC)c2c1`, the survival was inactive: 141%.

Turning to `O=C(OCc1nc(-c2ccccc2)oc1COC(=O)c1ccco1)c1ccco1`, the survival was inactive: 72%.

On to `Nc1c(Cl)ncnc1NCCO`, for which the survival is inactive: 97%.

For the compound `Cc1cccc(C)c1NC(=O)Cn1c(=O)n(CC2CCC(C(=O)NCCc3ccccc3)CC2)c(=O)c2ccccc21` (configuration not stated), the survival was inactive: 100%.

As for `CCOC(=O)c1noc2ncnc(Nc3ccc(F)cc3F)c12`, the survival is inactive: 122%.

Consider `CCOC(=O)C1CCN(C(=O)C2CCN(C3=NS(=O)(=O)C(c4ccc(C)cc4)=C3CC)CC2)CC1`, for which the survival was inactive: 115%.

In the case of `CCOC(=O)CSc1nc2c(sc3ccccc32)c(=O)n1CCc1ccccc1`, the survival is inactive: 60%.

For the compound `O=[N+]([O-])c1cc(-c2nc(-c3ccccc3)no2)ccc1N1CCN(c2ccccc2)CC1`, the survival was inactive: 77%.

Regarding `Cn1cc(S(=O)(=O)N2CCCCCC2)cc1C(=O)N1CCN(c2cccc(Cl)c2)CC1`, the survival is inactive: 68%.

In the case of `CCOc1ccc(OC(=O)c2cn(-c3ccc(C)cc3)c(=O)c3ccccc23)cc1`, the survival is inactive: 78%.

`COc1ccc(-c2nc3c4ccccc4n(CC(=O)Nc4cc(F)ccc4F)c(=O)n3n2)cc1`: the survival is inactive: 84%.

In the case of `Cc1ccc(NCCOc2ccccc2)c(C)c1`, the survival was inactive: 106%.

As to `Cc1coc2cc3oc(=O)c(CCC(=O)NCc4ccc(Cl)cc4)c(C)c3cc12`, the survival was inactive: 69%.

Regarding `COc1ccc(-c2cc(C(F)(F)F)n3nc(C(=O)Nc4cc(Cl)cc(Cl)c4)cc3n2)cc1`, the survival was inactive: 86%.

Regarding `COc1cc(-c2ccno2)ccc1S(=O)(=O)N1CCN(c2ccc(C(C)=O)cc2)CC1`, the survival is inactive: 76%.

For `CCCCC(=O)Nc1ccccc1C(=O)OCc1cc(=O)n2nc(C3CCCCC3)sc2n1`, the survival was inactive: 63%.

On to `COc1cc(OC)cc(C(=O)Nc2ccccc2-c2nc3ccccc3s2)c1`, for which the survival is active: 17%.

As for `CN(C)c1ccc(C(CNC(=O)c2ccc(C(C)(C)C)cc2)N2CCOCC2)cc1` (configuration not stated), the survival is inactive: 83%.

`COc1ccc2[nH]c(C)c(CCNS(=O)(=O)c3cc(F)ccc3OC)c2c1`: the survival is inactive: 57%.

In the case of `CCCOc1cccc(C(=O)Nc2cccc(NC(=O)c3ccc(C(C)(C)C)cc3)c2)c1`, the survival is inactive: 76%.

`C=CCNC(=O)C(C)Sc1nnc2c(n1)[nH]c1ccccc12` (configuration not stated): the survival is inactive: 68%.

Consider `CN(C1CCCCC1)S(=O)(=O)Cc1ccccc1`, for which the survival was inactive: 114%.

Take `COc1ccc(CCNC(=O)C2(c3cccs3)CCOCC2)cc1OC`: the survival was inactive: 86%.

On to `CCCCN1C(=O)CN(C2CCCCCC2)C(=O)C1c1ccc(OCCC)c(OC)c1` (configuration not stated), for which the survival is inactive: 66%.

Take `CCOc1ccc(CCNC(=O)c2nnc(Cc3cc(OC)c(OC)c(OC)c3)o2)cc1OCC`: the survival is inactive: 81%.

Consider `O=C(CCNc1n[nH]c(=O)[nH]c1=O)N1CCCCC1`, for which the survival was inactive: 97%.

For the compound `COc1ccc(N2CCN(S(=O)(=O)CCNC(=O)Cc3ccc(Cl)cc3)CC2)cc1`, the survival is inactive: 81%.

For the compound `CCOC(=O)C1CCN(C(=O)Cn2nc(C)n3c(cc4cc(F)ccc43)c2=O)CC1`, the survival is inactive: 91%.

`COc1cc(C(=O)NCC(c2cccnc2)N2CCc3ccccc32)cc(OC)c1OC` (configuration not stated): the survival is active: 44%.

On to `Cc1ccccc1Cn1c(=O)n(Cc2ccc(Cl)cc2)c(=O)c2cccnc21`, for which the survival is inactive: 82%.

For `COc1cc(Cl)c(C)cc1NC(=O)c1sc2nc3n(c(=O)c2c1C)CCCCC3`, the survival is inactive: 52%.

Consider `COc1ccc(OC)c(NC(=O)CSC2=Nc3ccccc3C3=NC(CC(=O)NCc4ccc5c(c4)OCO5)C(=O)N23)c1` (configuration not stated), for which the survival is inactive: 80%.

As to `CCOC(=O)c1c(NC(=O)c2nc(SC(C)C)ncc2Cl)sc2c1CCCC2`, the survival was active: 56%.

In the case of `O=c1cc(N2CCN(c3ccc(F)cc3)CC2)[nH]c(=O)n1-c1ccc(Br)cc1`, the survival is inactive: 124%.

On to `Cn1c(SCc2ccc(C(F)(F)F)cc2)nc2c([nH]c3ccccc32)c1=O`, for which the survival is inactive: 88%.

For the compound `Cc1ccc[n+](CC(=O)c2cccs2)c1`, the survival was inactive: 106%.

On to `Cc1ccc2c(C)c(C(=O)N(Cc3ccc(Cl)cc3)C3CCS(=O)(=O)C3)oc2c1` (configuration not stated), for which the survival is active: 34%.

Regarding `O=C1[C@@H]2CSC(c3ccc(C(F)(F)F)cc3)N2C(=O)N1c1ccccc1` (some centres not stated), the survival was inactive: 81%.

For the compound `CCCNc1c(NC(=O)c2ccc(OCCC)cc2)c(=O)oc2ccccc12`, the survival is inactive: 78%.

These data come from PubChem BioAssay AID463173 (ICCB-Longwood Screening Facility, Harvard Medical School, 2010).
